Laboratory results: a collection of fitness landscapes (doi:10.1016/j.celrep.2020.107928)
Whole data set: some 81,000 sequences, median “one-hybrid fitness for binding parS DNA” near -0.17, cut for the highest 2% near 0.51. Some of the results follow.

B1: Caulobacter ParB omega fusion; a variant is named by its letters at X, in order, B8GW30 (parent)
chain: MESVVVGEPGMSEGRRGLGRGLSALLGEVDAAPAQAPGEQLGGSREAPIEILQRNPDQPRRTFREEDLEDLSNSIREKGVLQPILVRPSPDTAGEYQIVAGERAWRAAQRAGLKTVPIMVRELDDLAVLEIGIIENVQRADLNVLEEALSYKVLMEKFERTQENIAQTIGKSXSHVANXMRLLXLPDEVQSYLVSGELTAXHARAIAAAADPVALAKQIIEGGLSVRETEALARKAPNLSAGKSKGGRPPRVKDTDTQALESDLSSVLGLDVSIDHRGSTGTLTITYATLEQLDDLCNRLTRGI

Variants of: B1
Experiment: one-hybrid fitness for binding parS DNA (scaled: cognate 1, non-cognate 0); higher = stronger binding
Details: with parS DNA site
Procedure, shortened: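 Selection: bacterial one-hybrid in E. coli USO, HIS3 reporter with the site 19 bp from the promoter, 48 hours at 37°C on M9-minus-histidine plus 0.1 mM IPTG and 5 mM 3-AT. Libraries were Caulobacter ParB with four randomised specificity codons, sequenced on Illumina before and after selection. Fitness is the rescaled log change in variant-to-wild-type read ratio, anchored to the cognate and non-cognate sites.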
For ISID, the “one-hybrid fitness for binding parS DNA” value was no more than 0.2. With VARG the “one-hybrid fitness for binding parS DNA” value was no more than 0.2. With GLQL the “one-hybrid fitness for binding parS DNA” value was no more than 0.2. In the case of GPVV, the “one-hybrid fitness for binding parS DNA” value is reported as no more than 0.2. NVQA was tested, and the “one-hybrid fitness for binding parS DNA” value was no more than 0.2. In the case of RQFR, the “one-hybrid fitness for binding parS DNA” value is reported as no more than 0.2. In the case of YVVV, the “one-hybrid fitness for binding parS DNA” value is reported as no more than 0.2. With HNQP the “one-hybrid fitness for binding parS DNA” value was no more than 0.2. For AYHR, the “one-hybrid fitness for binding parS DNA” value was no more than 0.2. With TGKS the “one-hybrid fitness for binding parS DNA” value was no more than 0.2. For AQLL, the “one-hybrid fitness for binding parS DNA” value was no more than 0.2. With YLVS the “one-hybrid fitness for binding parS DNA” value was no more than 0.2. TKLS was tested, and the “one-hybrid fitness for binding parS DNA” value was no more than 0.2. For NTIL, the “one-hybrid fitness for binding parS DNA” value was no more than 0.2. With FHNL the “one-hybrid fitness for binding parS DNA” value was no more than 0.2. For LKPT, the “one-hybrid fitness for binding parS DNA” value was no more than 0.2. With HYSA the “one-hybrid fitness for binding parS DNA” value was no more than 0.2. In the case of PRDW, the “one-hybrid fitness for binding parS DNA” value is reported as no more than 0.2. RKYQ was tested, and the “one-hybrid fitness for binding parS DNA” value was 0.213. For HIKS, the “one-hybrid fitness for binding parS DNA” value was no more than 0.2. With NHTT the “one-hybrid fitness for binding parS DNA” value was no more than 0.2. For LIIY, the “one-hybrid fitness for binding parS DNA” value was no more than 0.2. In the case of GFKR, the “one-hybrid fitness for binding parS DNA” value is reported as no more than 0.2. In the case of NILT, the “one-hybrid fitness for binding parS DNA” value is reported as no more than 0.2. For QIAT, the “one-hybrid fitness for binding parS DNA” value was no more than 0.2. In the case of TVPI, the “one-hybrid fitness for binding parS DNA” value is reported as no more than 0.2. In the case of GIPH, the “one-hybrid fitness for binding parS DNA” value is reported as no more than 0.2. WICS was tested, and the “one-hybrid fitness for binding parS DNA” value was 0.216. With MKST the “one-hybrid fitness for binding parS DNA” value was no more than 0.2. With RQSD the “one-hybrid fitness for binding parS DNA” value was no more than 0.2. In the case of MVRG, the “one-hybrid fitness for binding parS DNA” value is reported as no more than 0.2. VANH was tested, and the “one-hybrid fitness for binding parS DNA” value was no more than 0.2. With KSFA the “one-hybrid fitness for binding parS DNA” value was no more than 0.2. For IPIK, the “one-hybrid fitness for binding parS DNA” value was no more than 0.2. For HAKI, the “one-hybrid fitness for binding parS DNA” value was no more than 0.2. For YGEL, the “one-hybrid fitness for binding parS DNA” value was no more than 0.2. For MSAM, the “one-hybrid fitness for binding parS DNA” value was no more than 0.2. For RRWP, the “one-hybrid fitness for binding parS DNA” value was no more than 0.2. HNFG was tested, and the “one-hybrid fitness for binding parS DNA” value was no more than 0.2. In the case of LFHF, the “one-hybrid fitness for binding parS DNA” value is reported as no more than 0.2. ATKL was tested, and the “one-hybrid fitness for binding parS DNA” value was no more than 0.2. For RFAT, the “one-hybrid fitness for binding parS DNA” value was 0.79. For FTIM, the “one-hybrid fitness for binding parS DNA” value was no more than 0.2. For TPAR, the “one-hybrid fitness for binding parS DNA” value was no more than 0.2. For EHRG, the “one-hybrid fitness for binding parS DNA” value was no more than 0.2. YIAC was tested, and the “one-hybrid fitness for binding parS DNA” value was no more than 0.2. SMSV was tested, and the “one-hybrid fitness for binding parS DNA” value was no more than 0.2. With CSFR the “one-hybrid fitness for binding parS DNA” value was no more than 0.2. For SEQI, the “one-hybrid fitness for binding parS DNA” value was no more than 0.2. With FLKG the “one-hybrid fitness for binding parS DNA” value was no more than 0.2. SDMC was tested, and the “one-hybrid fitness for binding parS DNA” value was no more than 0.2. With VLLF the “one-hybrid fitness for binding parS DNA” value was no more than 0.2. In the case of VVKR, the “one-hybrid fitness for binding parS DNA” value is reported as no more than 0.2. With DQMK the “one-hybrid fitness for binding parS DNA” value was no more than 0.2. TGVV was tested, and the “one-hybrid fitness for binding parS DNA” value was no more than 0.2. CERL was tested, and the “one-hybrid fitness for binding parS DNA” value was no more than 0.2. With MRLV the “one-hybrid fitness for binding parS DNA” value was no more than 0.2. With LDYS the “one-hybrid fitness for binding parS DNA” value was no more than 0.2. GRDL was tested, and the “one-hybrid fitness for binding parS DNA” value was no more than 0.2. In the case of PCPW, the “one-hybrid fitness for binding parS DNA” value is reported as no more than 0.2. SQKH was tested, and the “one-hybrid fitness for binding parS DNA” value was no more than 0.2. For VAFW, the “one-hybrid fitness for binding parS DNA” value was no more than 0.2. In the case of LQVM, the “one-hybrid fitness for binding parS DNA” value is reported as no more than 0.2. NSHL was tested, and the “one-hybrid fitness for binding parS DNA” value was no more than 0.2. RQMT was tested, and the “one-hybrid fitness for binding parS DNA” value was 0.881. For RRIG, the “one-hybrid fitness for binding parS DNA” value was 0.908. With RGGV the “one-hybrid fitness for binding parS DNA” value was no more than 0.2. With QCKS the “one-hybrid fitness for binding parS DNA” value was no more than 0.2. In the case of HHPQ, the “one-hybrid fitness for binding parS DNA” value is reported as no more than 0.2. For HFIF, the “one-hybrid fitness for binding parS DNA” value was no more than 0.2. In the case of LPAV, the “one-hybrid fitness for binding parS DNA” value is reported as no more than 0.2. In the case of KSGV, the “one-hybrid fitness for binding parS DNA” value is reported as no more than 0.2. For IQEG, the “one-hybrid fitness for binding parS DNA” value was no more than 0.2. In the case of VWQV, the “one-hybrid fitness for binding parS DNA” value is reported as no more than 0.2. For YRAL, the “one-hybrid fitness for binding parS DNA” value was no more than 0.2. QFTM was tested, and the “one-hybrid fitness for binding parS DNA” value was no more than 0.2. In the case of IYRR, the “one-hybrid fitness for binding parS DNA” value is reported as no more than 0.2. For RAHA, the “one-hybrid fitness for binding parS DNA” value was 0.613. In the case of DRLM, the “one-hybrid fitness for binding parS DNA” value is reported as no more than 0.2. In the case of NSTF, the “one-hybrid fitness for binding parS DNA” value is reported as no more than 0.2. For HLAT, the “one-hybrid fitness for binding parS DNA” value was no more than 0.2. In the case of FTRS, the “one-hybrid fitness for binding parS DNA” value is reported as no more than 0.2. For MHNC, the “one-hybrid fitness for binding parS DNA” value was no more than 0.2. With YISN the “one-hybrid fitness for binding parS DNA” value was no more than 0.2. With HVAL the “one-hybrid fitness for binding parS DNA” value was no more than 0.2. In the case of GFGM, the “one-hybrid fitness for binding parS DNA” value is reported as no more than 0.2. In the case of GICF, the “one-hybrid fitness for binding parS DNA” value is reported as no more than 0.2. For RITV, the “one-hybrid fitness for binding parS DNA” value was no more than 0.2. In the case of HRNQ, the “one-hybrid fitness for binding parS DNA” value is reported as no more than 0.2. In the case of DPKR, the “one-hybrid fitness for binding parS DNA” value is reported as no more than 0.2. For DPPL, the “one-hybrid fitness for binding parS DNA” value was no more than 0.2. In the case of TMNS, the “one-hybrid fitness for binding parS DNA” value is reported as no more than 0.2. In the case of GLDE, the “one-hybrid fitness for binding parS DNA” value is reported as no more than 0.2. In the case of RTCI, the “one-hybrid fitness for binding parS DNA” value is reported as no more than 0.2. For SQRK, the “one-hybrid fitness for binding parS DNA” value was no more than 0.2. For GKAV, the “one-hybrid fitness for binding parS DNA” value was no more than 0.2. In the case of MDMP, the “one-hybrid fitness for binding parS DNA” value is reported as no more than 0.2.
